# Test results from patent publication US20170066807A1 (Pieris, published 2017).
# Changes are numbered by the printed parent chain.
# B1: SEQ ID NO 16 (designed binder)
# chain: ASDEEIQDVSGTWYLKAMTVDYRCLWGKLWSVTPMTLTTLEGGNLEAKVTMRLAGPKQEVKAVLEKTDEPGKYTADGGKHVAYIIRSHVKDHYIFYSEGHCAGFPVPGVWLVGRDPKNNLEALEDFEKAAGARGLSTESILIPRQSETSSPG
# B2: SEQ ID NO 18 (designed binder)
# chain: ASDEEIQDVSGTWYLKAMTVDTLCPGRFEGSVTPMTLTTLEGGNLEAKVTIAIDGEDQEVKAVLEKTDEPGKYTADGGKHVAYIIRSHVKDHYIFYSEGECAGLPVPGVWLVGRDPKNNLEALEDFEKAAGARGLSTESILIPRQSETSSPG
# B3: Tlc mutein of SEQ ID NO: 7 (designed binder)
# chain: B2 chain with I51N, A52T, D57Y, A75V
# notes: Human tear lipocalin mutein; It was detected via Strep-tag II or a scaffold-specific antibody
# B4: SEQ ID NO 31 (designed binder)
# chain: B2 chain
# B5: SEQ ID NO 28 (designed binder)
# chain: B2 chain with I51T, A52Q, E56S, D57V
# B6: SEQ ID NO 40 (designed binder)
# chain: B2 chain with I51Q, A52D, E56I, D57Q
# B7: SEQ ID NO 35 (designed binder)
# chain: B2 chain with I51M, A52S, D54E, E56V, D57T
# B8: SEQ ID NO 34 (designed binder)
# chain: B2 chain with T22V, L23V, R27H, F28W, I51L, A52E, E56D, D57T
# B9: SEQ ID NO 30 (designed binder)
# chain: B2 chain with I51Q, A52F, E56T, D57L
# B10: SEQ ID NO 43 (designed binder)
# chain: B2 chain with I51M, A52W, D54E, E56G, D57L
# B11: SEQ ID NO 22 (designed binder)
# chain: B2 chain with I51M, A52P, D54T, E56V, D57I
# B12: SEQ ID NO 12 (designed binder)
# chain: B2 chain with L23E, P25R, R27H, F28W, E29H, I51Q, A52S, D54W, E56T, D57A
# B13: SEQ ID NO 25 (designed binder)
# chain: B2 chain with I51M, A52W, E56V, D57I, V60D
# B14: SEQ ID NO 37 (designed binder)
# chain: B2 chain with I51N, A52T, D57Y, A75V
# B15: SEQ ID NO 42 (designed binder)
# chain: B2 chain with I51M, D54V, E56V, D57E, V60A
# B16: SEQ ID NO 41 (designed binder)
# chain: B2 chain with I51M, A52P, D54E, E56G, D57I
# B17: SEQ ID NO 24 (designed binder)
# chain: B2 chain with I51T, A52W, I53S, D54E, D57F
# B18: SEQ ID NO 29 (designed binder)
# chain: B2 chain with I51N, A52L, E56Q, D57Y
# B19: SEQ ID NO 38 (designed binder)
# chain: B2 chain with I51Q, A52F, D57W
# B20: SEQ ID NO 21 (designed binder)
# chain: B2 chain with I51M, D54P, E56Q, D57V
# B21: SEQ ID NO 26 (designed binder)
# chain: B2 chain with I51S, A52D, D54L, E56V, D57N
# B22: SEQ ID NO 33 (designed binder)
# chain: B2 chain with T22V, L23V, R27H, F28W, I51M, A52D, I53L, D54V, E56T, D57A
# B23: SEQ ID NO 32 (designed binder)
# chain: B2 chain with T22E, L23V, R27H, F28W
# B24: SEQ ID NO 36 (designed binder)
# chain: B2 chain with I51S, A52L, D54E, D57L
# B25: SEQ ID NO 19 (designed binder)
# chain: B2 chain with I51N, A52V, D57T
# B26: SEQ ID NO 27 (designed binder)
# chain: B2 chain with I51T, A52S, D54E, D57L
# B27: SEQ ID NO 11 (designed binder)
# chain: ASDEEIQDVSGTWYLKAMTVDDTCPGHYQGSVTPMTLTTLEGGNLEAKVTMPLDGDGQEVKAVLEKTDEPGKYTADGGKHVAYIIRSHVKDHYIFYSEGWCAGLPVPGVWLVGRDPKNNLEALEDFEKAAGARGLSTESILIPRQSETSSPG
# B28: SEQ ID NO 23 (designed binder)
# chain: B27 chain with D22E, T23F, Q29E, M51N, P52D, L53I, D54Q, D56V, G57D, A102Y
# B29: SEQ ID NO 39 (designed binder)
# chain: B2 chain with I51T, A52F, E56S, D57V
# B30: SEQ ID NO 15 (designed binder)
# chain: ASDEEIQDVSGTWYLKAMTVDFDCEFWLVPSVTPMTLTTLEGGNLEAKVTMWIFGIWQEWKAVLEKTDEPGKYTADGGKHVAYIIRSHVKDHYIFYSEGWCPGKPVPGVWLVGRDPKNNLEALEDFEKAAGARGLSTESILIPRQSETSSPG
# B31: SEQ ID NO 17 (designed binder)
# chain: ASDEEIQDVSGTWYLKAMTVDVDCLNSYLRSVTPMTLTTLEGGNLEAKVTMNIHGYYQELKAVLEKTDEPGKYTADGGKHVAYIIRSHVKDHYIFYSEGACTGSPVPGVWLVGRDPKNNLEALEDFEKAAGARGLSTESILIPRQSETSSPG
# B32: SEQ ID NO 20 (designed binder)
# chain: ASDEEIQDVSGTWYLKAMTVDTECFEARFHSVTPMTLTTLEGGNLEAKVTMWLNGWRQEVKAVLEKTDEPGKYTADGGKHVAYIIRSHVKDHYIFYSEGDCEGWPVPGVWLVGRDPKNNLEALEDFEKAAGARGLSTESILIPRQSETSSPG
# B33: Tlc mutein of SEQ ID NO: 8 (designed binder)
# chain: B32 chain
# notes: as for B3
# B34: SEQ ID NO 13 (designed binder)
# chain: ASDEEIQDVSGTWYLKAMTVDSNCKKLQGNSVTPMTLTTLEGGNLEAKVTMFIWGWWQEVKAVLEKTDEPGKYTADGGKHVAYIIRSHVKDHYIFYSEGTCYGSPVPGVWLVGRDPKNNLEALEDFEKAAGARGLSTESILIPRQSETSSPG
# B35: SEQ ID NO 14 (designed binder)
# chain: B34 chain with S22G, N23T, K25S, Q28H, F52L, W57K, T100S, Y102F
# How the values were obtained:
# [1] = biological target: T1, recombinant human GPC-3 protein (immobilized on plate) (human, UniProt P51654 25-559); experiment: competition ELISA: mutein dilution series with a fixed concentration of GPC-3 in solution, transferred to a plate with immobilized recombinant human GPC-3; bound mutein detected with antibody-HRP conjugate [contd]
# T1 construct: also called R&D 2119-GP/CF
# Method: (§1) The affinity (IC50/EC50 values) of the Tlc muteins was determined as summarized in FIG. 5 (SEQ ID NOs: 11-43): [0232] […] Samples were then transferred to a protein high-binding 384er plate with immobilized recombinant human GPC-3 protein. The bound lipocalin muteins were detected by a specific Antibody HRP conjugate complex. […] [0233] […] The bound lipocalin muteins were detected by a specific Antibody HRP conjugate complex.
# [2] = biological target: T2, biotinylated human GPC-3 (R&D Systems) (human, UniProt P51654 25-559, randomly biotinylated via Lysine residues using EZ-Link Sulfo-NHS-LC-LC-Biotin); experiment: direct ELISA, biotinylated human GPC-3 captured via Neutravidin, dilution series of the Tlc mutein
# T2 construct: Bought protein; also called biotinylated recombinant human GPC-3 (R&D 2119-GP/CF)
# Method: An ELISA was performed to verify the binding affinity and specificity of the selected Tlc muteins. Therefore, a constant concentration of 1 μg/ml biotinylated human GPC-3 (R&D Systems) was captured on the surface of a polystyrol plate (Greiner, GE) via BSA blocked Neutravidin (Thermo Scientific, 5 μg/ml). Two step dilution series of purified Tlc muteins were incubated with the captured GPC-3 for 1 h at room temperature and detected either via the Strep-tag II using a rabbit anti-strep-tag II polyconal antibody (GenScript, USA) or by using a scaffold-specific polyclonal rabbit antibody. In both cases an anti-rabbit-IgG-HRP conjugate (Abcam, UK) was employed as secondary detection antibody.
# The absorption ΔA at 320 nm was measured in an ELISA reader (Tecan, GE) and the data were fitted with Graphpad Prism software (Statcom, USA).
# [3] = biological target: T3, human GPC-3 on cells (SK Hep1:hGPC-3 transfectants; HepG2) (human, UniProt P51654 25-554); experiment: flow cytometry titration on human GPC-3 transfected SK-Hep1 cells, geometric mean fluorescence, detection with anti-Tlc antiserum and anti-rabbit IgG-PE
# T3 construct: whole, on cells; The same molecule is used for the transfected SK-Hep1 cells and the GPC-3 positive HepG2 cells; The cell line is named under assay; also called Glypican-3
# Method: Empty vector control cells were also obtained and analyzed in parallel. Expression of GPC-3 was also confirmed using a known mouse anti-GPC-3 clone 1G12 monoclonal antibody (DOS).
# In order to assess binding of muteins to the GPC-3 on the cell surface, cells were incubated on ice with increasing concentrations of each lipocalin mutein for 2 hr. Following two washing steps cells were incubated with a secondary rabbit anti-Tlc scaffold antiserum was employed for 30 min. […] Flow cytometry analysis was performed and geometric mean values were compiled in FlowJo (Treestar software) and fitted to a sigmoidal dose response model in the Prism 5 program (GraphPad) to obtain EC50 values.
# [4] = biological target: T1, recombinant human GPC-3 protein …; experiment: direct ELISA: mutein dilution series on a plate with immobilized recombinant human GPC-3; bound mutein detected with antibody-HRP conjugate [contd]
# Method: as §1
Binder,EC50 [4] [nM],other results
B1,–,IC50 [1]: 1.45 nM
B2,–,IC50 [1]: 43.5 nM
B3,–,EC50 [2]: 5.1 nM; EC50 (read off the curve) [3]: ~200 nM
B4,20,–
B5,4.6,–
B6,1.4,–
B7,62,–
B8,4.5,–
B9,2.9,–
B10,19,–
B11,31.2,–
B12,–,IC50 [1]: 276 nM
B13,2.6,–
B14,1.1,–
B15,6,–
B16,7,–
B17,2.8,–
B18,3.2,–

Binder,EC50 [4] [nM],other results
B19,4.5,–
B20,22.2,–
B21,10,–
B22,13.5,–
B23,4,–
B24,2.4,–
B25,3.75,–
B26,28,–
B27,–,IC50 [1]: 32.1 nM
B28,0.47,–
B29,12.6,–
B30,–,IC50 [1]: 252 nM
B31,–,IC50 [1]: 258 nM
B32,0.9,–
B33,–,EC50 [2]: 1.2 nM; EC50 (read off the curve) [3]: ~10 nM
B34,–,IC50 [1]: 9.74 nM
B35,–,IC50 [1]: 15.4 nM
